Source: the supplement of paper PMC8728848
The list shows a part of the results.

Tests used:
Experiment in all cases: glycan array binding signal (z-score within array); higher = stronger binding
Settings in all cases: glycan notation: IUPAC condensed, linker removed
[1] = biological target: Neu5Ac(a2-3)Gal(b1-4)GlcNAc(b1-2)[Neu5Ac(a2-3)Gal(b1-4)GlcNAc(b1-4)]Man(a1-3)[GlcNAc(b1-4)][Neu5Ac(a2-3)Gal(b1-4)GlcNAc(b1-2)[Neu5Ac(a2-3)Gal(b1-4)GlcNAc(b1-6)]Man(a1-6)]Man(b1-4)GlcNAc(b1-4)GlcNAc
Outline: (§1)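 Columns mapping to the same glycan were averaged after glycan names were converted to IUPAC-condensed notation. The data come from 3228 arrays in the Consortium for Functional Glycomics database, limited to those with an available protein sequence. Binding is reported as a within-array Z-score averaged across arrays of one protein sequence and across linkers.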

[2] = biological target: Neu5Ac(a2-3)Gal(b1-4)GlcNAc(b1-2)[Neu5Ac(a2-3)Gal(b1-4)GlcNAc(b1-4)]Man(a1-3)[GlcNAc(b1-4)][Neu5Ac(a2-3)Gal(b1-4)GlcNAc(b1-4)Man(a1-6)]Man(b1-4)GlcNAc(b1-4)GlcNAc
Outline: as §1

[3] = biological target: Neu5Ac(a2-3)Gal(b1-4)GlcNAc(b1-2)[Neu5Ac(a2-3)Gal(b1-4)GlcNAc(b1-6)]Man(a1-6)[Neu5Ac(a2-3)Gal(b1-4)GlcNAc(b1-2)Man(a1-3)][GlcNAc(b1-4)]Man(b1-4)GlcNAc(b1-4)GlcNAc
Outline: as §1

[4] = biological target: Neu5Ac(a2-3)Gal(b1-4)GlcNAc(b1-3)Gal
Outline: as §1

[5] = biological target: Neu5Ac(a2-3)Gal(b1-4)GlcNAc(b1-3)Gal(b1-3)GlcNAc
Outline: as §1

[6] = biological target: Neu5Ac(a2-3)Gal(b1-4)GlcNAc(b1-3)Gal(b1-4)GlcNAc
Outline: as §1

[7] = biological target: Neu5Ac(a2-3)Gal(b1-4)GlcNAc(b1-3)Gal(b1-4)GlcNAc(b1-2)Man(a1-3)[Neu5Ac(a2-3)Gal(b1-4)GlcNAc(b1-3)Gal(b1-4)GlcNAc(b1-2)Man(a1-6)]Man(b1-4)GlcNAc(b1-4)GlcNAc
Outline: as §1

[8] = biological target: Neu5Ac(a2-3)Gal(b1-4)GlcNAc(b1-3)Gal(b1-4)GlcNAc(b1-3)Gal(b1-4)GlcNAc
Outline: as §1

[9] = biological target: Neu5Ac(a2-3)Gal(b1-4)GlcNAc(b1-3)Gal(b1-4)GlcNAc(b1-3)Gal(b1-4)GlcNAc(b1-2)Man(a1-3)[Neu5Ac(a2-3)Gal(b1-4)GlcNAc(b1-3)Gal(b1-4)GlcNAc(b1-3)Gal(b1-4)GlcNAc(b1-2)Man(a1-6)]GalNAc
Outline: as §1

[10] = biological target: Neu5Ac(a2-3)Gal(b1-4)GlcNAc(b1-3)Gal(b1-4)GlcNAc(b1-3)GalNAc
Outline: as §1

[11] = biological target: Neu5Ac(a2-3)Gal(b1-4)GlcNAc(b1-3)Gal(b1-4)GlcNAc(b1-3)[Neu5Ac(a2-3)Gal(b1-4)GlcNAc(b1-3)Gal(b1-4)GlcNAc(b1-6)]GalNAc
Outline: as §1

[12] = biological target: Neu5Ac(a2-3)Gal(b1-4)GlcNAc(b1-3)Gal(b1-4)GlcNAc(b1-6)[Gal(b1-3)]GalNAc
Outline: as §1

[13] = biological target: Neu5Ac(a2-3)Gal(b1-4)GlcNAc(b1-3)Gal(b1-4)[Fuc(a1-3)]GlcNAc
Outline: as §1

[14] = biological target: Neu5Ac(a2-3)Gal(b1-4)GlcNAc(b1-3)GalNAc
Outline: as §1

[15] = biological target: Neu5Ac(a2-3)Gal(b1-4)GlcNAc(b1-3)[Neu5Ac(a2-3)Gal(b1-4)GlcNAc(b1-6)]GalNAc
Outline: as §1

[16] = biological target: Neu5Ac(a2-3)Gal(b1-4)GlcNAc(b1-6)GalNAc
Outline: as §1

[17] = biological target: Neu5Ac(a2-3)Gal(b1-4)GlcNAc(b1-6)[Gal(b1-3)]GalNAc
Outline: as §1

[18] = biological target: Neu5Ac(a2-3)Gal(b1-4)GlcNAc(b1-6)[Neu5Ac(a2-3)Gal(b1-3)]GalNAc
Outline: as §1

[19] = biological target: Neu5Ac(a2-3)Gal(b1-4)GlcNAc6S
Outline: as §1

[20] = biological target: Neu5Ac(a2-3)Gal(b1-4)[Fuc(a1-3)]GlcNAc
Outline: as §1

[21] = biological target: Neu5Ac(a2-3)Gal(b1-4)[Fuc(a1-3)]GlcNAc(b1-2)Man
Outline: as §1

[22] = biological target: Neu5Ac(a2-3)Gal(b1-4)[Fuc(a1-3)]GlcNAc(b1-3)Gal
Outline: as §1

[23] = biological target: Neu5Ac(a2-3)Gal(b1-4)[Fuc(a1-3)]GlcNAc(b1-3)Gal(b1-4)GlcNAc
Outline: as §1

[24] = biological target: Neu5Ac(a2-3)Gal(b1-4)[Fuc(a1-3)]GlcNAc(b1-3)Gal(b1-4)[Fuc(a1-3)]GlcNAc(b1-3)Gal(b1-4)[Fuc(a1-3)]GlcNAc
Outline: as §1

[25] = biological target: Neu5Ac(a2-3)Gal(b1-4)[Fuc(a1-3)]GlcNAc(b1-3)GalNAc
Outline: as §1

[26] = biological target: Neu5Ac(a2-3)Gal(b1-4)[Fuc(a1-3)]GlcNAc(b1-6)[Gal(b1-3)]GalNAc
Outline: as §1

[27] = biological target: Neu5Ac(a2-3)Gal(b1-4)[Fuc(a1-3)]GlcNAc(b1-6)[Neu5Ac(a2-3)Gal(b1-3)]GalNAc
Outline: as §1

[28] = biological target: Neu5Ac(a2-3)Gal(b1-4)[Fuc(a1-3)]GlcNAc6S
Outline: as §1

[29] = biological target: Neu5Ac(a2-3)Gal6S(b1-4)GlcNAc
Outline: as §1

[30] = biological target: Neu5Ac(a2-3)Gal6S(b1-4)[Fuc(a1-3)]GlcNAc
Outline: as §1

[31] = biological target: Neu5Ac(a2-3)GalNAc
Outline: as §1

[32] = biological target: Neu5Ac(a2-3)GalNAc(b1-4)GlcNAc
Outline: as §1

[33] = biological target: Neu5Ac(a2-3)[GalNAc(b1-4)]Gal(b1-4)Glc
Outline: as §1

[34] = biological target: Neu5Ac(a2-3)[GalNAc(b1-4)]Gal(b1-4)GlcNAc
Outline: as §1

[35] = biological target: Neu5Ac(a2-3)[GalNAc(b1-4)]Gal(b1-4)GlcNAc(b1-3)GalNAc
Outline: as §1

[36] = biological target: Neu5Ac(a2-3)[Neu5Ac(a2-6)]GalNAc
Outline: as §1

[37] = biological target: Neu5Ac(a2-6)Gal
Outline: as §1

[38] = biological target: Neu5Ac(a2-6)Gal(b1-3)GlcNAc(b1-3)[Gal(b1-4)GlcNAc(b1-6)]Gal(b1-4)Glc
Outline: as §1

[39] = biological target: Neu5Ac(a2-6)Gal(b1-4)Glc
Outline: as §1

[40] = biological target: Neu5Ac(a2-6)Gal(b1-4)GlcNAc
Outline: as §1

[41] = biological target: Neu5Ac(a2-6)Gal(b1-4)GlcNAc(b1-2)Man
Outline: as §1

[42] = biological target: Neu5Ac(a2-6)Gal(b1-4)GlcNAc(b1-2)Man(a1-3)Man(b1-4)GlcNAc(b1-4)GlcNAc
Outline: as §1

[43] = biological target: Neu5Ac(a2-6)Gal(b1-4)GlcNAc(b1-2)Man(a1-3)[Gal(b1-4)GlcNAc(b1-2)Man(a1-6)]Man(b1-4)GlcNAc(b1-4)GlcNAc
Outline: as §1

[44] = biological target: Neu5Ac(a2-6)Gal(b1-4)GlcNAc(b1-2)Man(a1-3)[GlcNAc(b1-2)Man(a1-6)]Man(b1-4)GlcNAc(b1-4)GlcNAc
Outline: as §1

[45] = biological target: Neu5Ac(a2-6)Gal(b1-4)GlcNAc(b1-2)Man(a1-3)[GlcNAc(b1-4)][Neu5Ac(a2-6)Gal(b1-4)GlcNAc(b1-2)Man(a1-6)]Man(b1-4)GlcNAc(b1-4)GlcNAc
Outline: as §1

B1: rEtpA (Escherichia coli) (protein)
chain: MNRIYKLKFDKRRNELVVVSEITTGVGNAKATGSVEGEKSPRRGVRAMALSLLSGMMIMAHPAMSANLPTGGQIVAGSGSIQTPSGNQMNIHQNSQNMVANWNSFDIGKGNTVQFDQPSSSAVALNRVVGGGESQIMGNLKANGQVFLVNPNGVLFGEGASVSTSGFVASTRDIKNDDFMNRRYTFSGGQKAGAAIVNQGELTTNAGGYIVLAADRVSNSGTIRTPGGKTVLAASERITLQLDNGGLMSVQVTGDVVNALVENRGLVSARDGQVYLTALGRGMLMNTVLNVSGVVEASGMHRQDGNIVLDGGDSGVVHLSGTLQADNASGQGGKVVVQGKNILLDKGSNITATGGQGGGEVYVGGGWQGKDSNIRNADKVVMQGGARIDVSATQQGNGGTAVLWSDSYTNFHGQISAKGGETGGNGGRVETSSHGNLQAFGTVSASAKKGKAGNWLLDSADITIVNGSNVSKTETTQSPPHTQFAPTAAGSAVSNTSINNRLNNGTSVTILTHRTRTGTAQGGNITVNAAINKSNGSDVNLTLQAGGNITVNNSITSTEGKLNVNLSGARTSNGSITISNNANITTNGGDITVGTTNTSNRVNISINNTTLNASNGNIQLTGTGTDSGILFAGNNRLTASNIALTGNSTSGNAINLTGTATLNATNNITLTGSSTSGNAINLKGNNTLTASNITLTGESTSGNAINLTDTTGTTTLNATNNITMQGTRVQIKHSNITAGNFALNATVAGSEISNTTLTATNNINLAAKTNSASSGVYLKDARITSTNGSITANGTATANGKATHLDGNVTLNASNGRIKLTGNGHGSASGILFAGNNRLTASNIALTGNSTSGNAINLTGTATLNATNDITLTGSSTSGNAINLTGTATLNATNNITLTGSSTSGNAINLKGNNTLTASNITLTGESTSGNAINLTDTTGTTTLNATNNITMQGTRVQIKHSNITAGNFALNATVAGSEISNTTLTATNNINLAAKTNSASSGVYLKDARITSTNGSITANGTATANGKATHLDGNVTLNASNGRIKLTGNGHGSASGILFAGNNRLTASNIALTGNSTSGNAINLTGTATLNATNDITLTGSSTSGNAINLTGTATLNATNNITLTGSSTSGNAINLKGNNTLTASNITLTGESTSGNAINLTDTTGTTTLNATNNITMQGTRVQIKHSNITAGNFALNATVAGSEISNTTLTATNNINLAAKTNSASSGVYLKDARITSTNGSITANGTATANGKATHLDGNVTLNASNGRIKLTGNGHGSASGILFAGNNRLTASNIALTGNSTSGNAINLTGTATLNATNDITLTGSSTSGNAINLTGTATLNATNNITLTGSSTSGNAINLKGNNTLTASNITLTGESTSGNAINLTDTTGTTTLNATNNITMQGTRVQIKHSNITAGNFALNATVAGSEISNTTLTATNNINLAAKTNSASSGVYLKDARITSTNGSITTNGTATANGKATHLDGNVTLNASNGRIKLTGNGHGSASGILFAGNNRLTASNIALTGNSTSGNAINLTGTATLNATNDITLTGSSTSGNAINLTGTATLNATNNITLTGSSTSGNAINLKGNNTLTASNITLTGESTSGNAINLTDTTGTTTLNATNNITMQGTRVQIKHSNITAGNFALNATVAGSEISNTTLTATNNINLAAKTNSASSGVYLKDARITSTNGSITANGTAPANDNATYLDGNVTLNASNGSIKLTGNGNGSTSGILFAGNNTLTASNITLTGNSEVYWQKLGPEQKLISEEDLNSAVDHHHHHH
glycan array binding signal (z-score) [1]: -0.373 | glycan array binding signal (z-score) [2]: -0.198 | glycan array binding signal (z-score) [3]: -0.327 | glycan array binding signal (z-score) [4]: 0.019 | glycan array binding signal (z-score) [5]: -0.414 | glycan array binding signal (z-score) [6]: 0.276 | glycan array binding signal (z-score) [7]: -0.408 | glycan array binding signal (z-score) [8]: -0.401 | glycan array binding signal (z-score) [9]: -0.151 | glycan array binding signal (z-score) [10]: -0.38 | glycan array binding signal (z-score) [11]: -0.371 | glycan array binding signal (z-score) [12]: -0.423 | glycan array binding signal (z-score) [13]: -0.434 | glycan array binding signal (z-score) [14]: 0.379 | glycan array binding signal (z-score) [15]: -0.336 | glycan array binding signal (z-score) [16]: -0.357 | glycan array binding signal (z-score) [17]: -0.372 | glycan array binding signal (z-score) [18]: -0.389 | glycan array binding signal (z-score) [19]: -0.347 | glycan array binding signal (z-score) [20]: -0.389 | glycan array binding signal (z-score) [21]: -0.312 | glycan array binding signal (z-score) [22]: -0.332 | glycan array binding signal (z-score) [23]: -0.431 | glycan array binding signal (z-score) [24]: -0.322 | glycan array binding signal (z-score) [25]: 0.058 | glycan array binding signal (z-score) [26]: -0.264 | glycan array binding signal (z-score) [27]: -0.011 | glycan array binding signal (z-score) [28]: -0.018 | glycan array binding signal (z-score) [29]: 0.188 | glycan array binding signal (z-score) [30]: 0.519 | glycan array binding signal (z-score) [31]: -0.34 | glycan array binding signal (z-score) [32]: -0.259 | glycan array binding signal (z-score) [33]: -0.136 | glycan array binding signal (z-score) [34]: -0.341 | glycan array binding signal (z-score) [35]: -0.345 | glycan array binding signal (z-score) [36]: -0.352 | glycan array binding signal (z-score) [37]: 8.28 | glycan array binding signal (z-score) [38]: -0.416 | glycan array binding signal (z-score) [39]: 0.468 | glycan array binding signal (z-score) [40]: -0.384 | glycan array binding signal (z-score) [41]: -0.359 | glycan array binding signal (z-score) [42]: 0.754 | glycan array binding signal (z-score) [43]: -0.368 | glycan array binding signal (z-score) [44]: 0.264 | glycan array binding signal (z-score) [45]: 0.077
